From the antibiotic and cytotoxicity screens of Wong et al. (2023) come the findings set out here.

In one experiment the test system is HSkMC (human skeletal muscle cells). As to the kind of experiment: cytotoxicity call (relative viability < 0.9). As to conditions: 10 µM.
A further experiment has as its system HepG2. As to the kind of experiment: cytotoxicity call (relative viability < 0.9). The note with it: 10 µM.
The next experiment relates to S. aureus RN4220. As to the kind of experiment: growth inhibition call (relative growth <= 0.2). As to conditions: 50 µM.

Each structure is given as a SMILES string. Some of the results follow.

As for `COc1cccc2c1C(=O)c1c(O)c3c(c(O)c1C2=O)CC(O)(C(=O)CO)CC3OC1CC(N)C(O)C(C)O1` (configuration not stated), the cytotoxicity call in the experiment with HSkMC and with HepG2 was “active” throughout. Also, in the experiment with S. aureus RN4220, the growth inhibition call was “inactive”.

Consider `C[C@@H]1CN([C@@H](C)CO)S(=O)(=O)c2ccc(C#Cc3cccnc3)cc2O[C@@H]1CN(C)C(=O)CN(C)C`, for which the cytotoxicity call in the experiment with HSkMC and with HepG2 was “inactive” in each case. Also, the growth inhibition call in the experiment with S. aureus RN4220 was “inactive”.

Take `C[N+](C)(C)CCO`: the cytotoxicity call in the experiment with HSkMC and in the experiment on HepG2 was “inactive” in each case. In the experiment with S. aureus RN4220, the growth inhibition call was “inactive”.

For `C[C@@H]1CN([C@H](C)CO)C(=O)CCCn2nncc2CO[C@H]1CN(C)C(=O)Nc1cccc(C(F)(F)F)c1`, the cytotoxicity call in the experiment with HSkMC and in the experiment with HepG2 was “inactive” each time. Also, the growth inhibition call in the experiment on S. aureus RN4220 is “active”.

Regarding `C[C@H](CO)N1C[C@H](C)[C@H](CN(C)C(=O)Cc2cccnc2)Oc2ncc(C#CCc3ccccc3)cc2C1=O`, the cytotoxicity call with HSkMC and in the experiment on HepG2 was “inactive” in each case. Also, the growth inhibition call in the experiment with S. aureus RN4220 is “inactive”.

For `COc1ccc2c3c(n(c2c1)C)[C@@H](CO)N(C[C@]13CN(C1)C(=O)c1ccncc1)C(=O)C1CCCCC1`, the cytotoxicity call in the experiment with HSkMC and with HepG2 was “inactive” each time. The growth inhibition call in the experiment on S. aureus RN4220 is “inactive”.

Turning to `C[C@H](CO)N1C[C@H](C)[C@H](CN(C)C(=O)Nc2ccc(F)cc2)Oc2c(NC(=O)c3nc4ccccc4s3)cccc2C1=O`, the cytotoxicity call with HSkMC and with HepG2 was “inactive” each time. The growth inhibition call in the experiment on S. aureus RN4220 was “inactive”.

For the compound `COc1ccc(S(=O)(=O)Nc2cccc3c2O[C@@H](CN(C)S(=O)(=O)c2c(C)noc2C)[C@H](C)CN([C@H](C)CO)C3=O)cc1`, the cytotoxicity call with HSkMC and in the experiment on HepG2 was “inactive” in each case. Also, the growth inhibition call with S. aureus RN4220 was “inactive”.

Turning to `Cc1noc(C)c1NC(=O)Nc1ccc2c(c1)C(=O)N([C@H](C)CO)C[C@H](C)[C@@H](CN(C)S(=O)(=O)c1ccccc1)O2`, the cytotoxicity call in the experiment with HSkMC and with HepG2 was “inactive” each time. For the same compound, the growth inhibition call with S. aureus RN4220 was “inactive”.

On to `C[C@H](CO)N1C[C@H](C)[C@H](CN(C)Cc2ccncc2)OCCCC[C@H](C)Oc2ccc(NS(=O)(=O)c3ccc(Cl)cc3)cc2C1=O`, for which the cytotoxicity call with HSkMC and in the experiment with HepG2 was “inactive” throughout. In the experiment on S. aureus RN4220, the growth inhibition call was “inactive”.

On to `COCC#Cc1ccc2c(c1)O[C@@H](CN(C)Cc1ccc(F)cc1)[C@H](C)CN([C@H](C)CO)S2(=O)=O`, for which the cytotoxicity call with HSkMC and in the experiment on HepG2 was “inactive” throughout. The growth inhibition call in the experiment on S. aureus RN4220 was “inactive”.

Take `C[C@H]1CN(C)C(=O)c2cc(NS(C)(=O)=O)ccc2O[C@H]1CN(C)S(C)(=O)=O`: the cytotoxicity call in the experiment with HSkMC and in the experiment with HepG2 was “inactive” in each case. In the experiment on S. aureus RN4220, the growth inhibition call is “inactive”.

Turning to `CC(C)NC(=O)Nc1cccc2c1O[C@@H](CN(C)S(=O)(=O)c1cn(C)cn1)[C@H](C)CN([C@H](C)CO)C2=O`, the cytotoxicity call with HSkMC and in the experiment with HepG2 was “inactive” in each case. Further, in the experiment with S. aureus RN4220, the growth inhibition call is “inactive”.

Regarding `C[C@@H]1CCCCO[C@H](CN(C)C(=O)Nc2ccc3c(c2)OCO3)[C@H](C)CN([C@@H](C)CO)C(=O)c2cc(NC(=O)Nc3ccccc3)ccc2O1`, the cytotoxicity call with HSkMC and in the experiment on HepG2 was “inactive” each time. Besides, the growth inhibition call in the experiment with S. aureus RN4220 is “inactive”.
